# Results from PubChem BioAssay AID504339 (National Center for Advancing Translational Sciences (NCATS), 2011).
# About 17,000 (4.4%) of roughly 390,000 compounds were called active. Inconclusive means that the source gave no clear call. Such entries were picked first, then a sample of the others. Calls follow the shape of the dose curve; as a rule, active = well fitted inhibition curve with a large enough effect; inconclusive = small, poorly fitted or top-dose-only effect; inactive = no such curve, though single readings can be large or run the other way. Potencies beside an inconclusive call are fits to weak or partial responses and may not hold up.
# Target: Lysine-specific demethylase 4A (Homo sapiens) (UniProt O75164)
# Chain of UniProt O75164 (O75164 whole entry, looked up, the tested form may be a part): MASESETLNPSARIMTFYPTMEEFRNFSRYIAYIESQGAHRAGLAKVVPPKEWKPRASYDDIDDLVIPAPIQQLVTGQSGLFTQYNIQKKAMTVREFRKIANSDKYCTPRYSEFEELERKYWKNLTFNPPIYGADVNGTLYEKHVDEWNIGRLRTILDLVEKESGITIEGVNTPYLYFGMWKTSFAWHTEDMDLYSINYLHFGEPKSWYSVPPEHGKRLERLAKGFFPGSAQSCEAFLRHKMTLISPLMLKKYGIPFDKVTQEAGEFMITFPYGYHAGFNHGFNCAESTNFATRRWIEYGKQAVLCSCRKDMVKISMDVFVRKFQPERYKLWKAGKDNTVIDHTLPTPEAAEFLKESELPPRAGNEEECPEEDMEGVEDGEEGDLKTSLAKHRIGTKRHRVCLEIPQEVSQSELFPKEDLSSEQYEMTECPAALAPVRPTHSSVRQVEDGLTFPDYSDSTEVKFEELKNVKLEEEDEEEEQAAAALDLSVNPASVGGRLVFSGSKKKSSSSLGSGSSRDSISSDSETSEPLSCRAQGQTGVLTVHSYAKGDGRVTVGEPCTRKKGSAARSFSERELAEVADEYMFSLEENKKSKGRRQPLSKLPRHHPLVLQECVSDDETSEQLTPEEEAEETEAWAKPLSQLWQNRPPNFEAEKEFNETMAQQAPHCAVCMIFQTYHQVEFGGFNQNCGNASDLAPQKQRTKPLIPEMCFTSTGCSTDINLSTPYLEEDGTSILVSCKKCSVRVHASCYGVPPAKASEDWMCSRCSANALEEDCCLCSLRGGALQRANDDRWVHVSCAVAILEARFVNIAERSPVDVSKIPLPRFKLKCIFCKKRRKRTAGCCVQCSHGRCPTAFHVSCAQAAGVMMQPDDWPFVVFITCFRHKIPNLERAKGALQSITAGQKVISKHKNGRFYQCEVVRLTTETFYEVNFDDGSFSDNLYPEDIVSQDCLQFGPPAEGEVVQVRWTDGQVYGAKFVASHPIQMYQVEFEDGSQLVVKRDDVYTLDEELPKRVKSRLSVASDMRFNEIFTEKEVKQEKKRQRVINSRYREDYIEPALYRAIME
# Test: qHTS Assay for Inhibitors of JMJD2A-Tudor Domain; also: nearly all actives have a fitted effect of over 50% in size
# Conditions: AlphaScreen JMJD2A-Tudor / H3K4me3 peptide binding; series mostly up to 114 µM
# Potency is read from the fitted curve at half-maximal effect; tags tell the direction and shape of the fitted curve.
row,SMILES,Potency
1,CCN1/C(=C\C=C(C(C)=O)C(C)=O)Sc2ccccc21,inactive
2,C=C(C)C(=O)Nc1cccc(C2=NOC3(C2)C[C@H](C(N)=O)N(C(=O)CC#N)C3)c1 (some centres undefined),active: 25.1 µM
3,CC(=O)Oc1ccc(C(=O)[C@H]2[C@H]3C(=O)N(c4ccc5ccccc5c4)C(=O)[C@H]3[C@@H]3C=CC=NN32)cc1,inactive
4,c1ccc(-c2cc(N3CCOCC3)nc3ccccc23)cc1,active: 3.16 µM
5,CC(/C=C1\SC(=S)N(CCC(=O)Nc2cccc(C(=O)O)c2)C1=O)=C\c1ccccc1,"inconclusive: 56.2 µM [inhibitor, partial curve]"
6,CCN1CCc2c(sc(-n3cccc3)c2C(C)NC(=O)Nc2ccc(Br)cc2)C1 (centres undefined),"inconclusive: 44.7 µM [inhibitor, partial curve]"
7,CCN(CC(=O)NCc1ccc(Cl)cc1)C(=O)CN1C(=O)NC(C)(c2ccccc2)C1=O (centres undefined),inactive
8,COc1cccc(Cn2ncc3c4sc(S(C)=O)cc4n(C)c3c2=O)c1 (centres undefined),"inconclusive: 35.5 µM [inhibitor, single point]"
9,CC(=O)N1CCN(c2ccc(NC(=O)c3ccc(OCc4ccccc4)cc3)cc2)CC1,"inconclusive: 15.8 µM [inhibitor, full curve]"
10,Cc1[nH]n(-c2cccc(Cl)c2)c(=O)c1-c1ccc(Cl)cc1,"inconclusive: 89.1 µM [inhibitor, single point]"
11,Cc1nc(NC(=O)CSc2nnc(-c3ccccc3)c(-c3ccccc3)n2)c(Cl)cc1Cl,inactive
12,Cc1ccc(C(=O)O/N=C\c2ccc(N3CCCCC3)c([N+](=O)[O-])c2)cc1,"inconclusive: 11.2 µM [inhibitor, partial curve]"
13,COc1ccc(Cl)cc1-c1n[nH]c(=S)n1C1CCCCC1,active: 35.5 µM
14,CC(=O)N1c2ccc(S(=O)(=O)NCC3CCC(C(=O)NC4CCCCC4C)CC3)cc2CC1C (centres undefined),"inconclusive: 17.8 µM [inhibitor, full curve, poor fit]"
15,COc1ccc(NC(=S)N/N=C2\CC(C)(C)Oc3ccc(O)cc32)cc1,"inconclusive: 5.01 µM [inhibitor, partial curve]"
16,COc1ccc(Nc2cc(C(=O)NCCCN3CCN(c4ccccc4F)CC3)c3ccccc3n2)c(OC)c1,active: 10 µM
17,Cc1ccc(-c2ccc(=O)n(CCC(=O)NCCc3ccccc3)n2)cc1,inactive
18,CCc1nn2cc(C(=O)c3cc(C)ccc3O)cnc2c1-c1ccc(F)cc1,"inconclusive: 17.8 µM [inhibitor, full curve]"
19,c1ccc(C[n+]2c(-c3ccccc3)csc2Nc2ccccc2)cc1,"inconclusive: 25.1 µM [inhibitor, partial curve]"
